Structures are written as SMILES. Among all 310,000 compounds or so, about 2,200 (0.71%) showed an effect of 50% or more. The effect is printed as a negative number. This is one part of the list.

The target in the test is human ether-à-go-go-related gene (hERG) potassium channel (human, UniProt Q12809). Nature of the test: primary screen, population patch clamp on CHO cells stably expressing hERG.
Sequence of human ether-à-go-go-related gene (hERG) potassium channel (Q12809 whole entry, looked up): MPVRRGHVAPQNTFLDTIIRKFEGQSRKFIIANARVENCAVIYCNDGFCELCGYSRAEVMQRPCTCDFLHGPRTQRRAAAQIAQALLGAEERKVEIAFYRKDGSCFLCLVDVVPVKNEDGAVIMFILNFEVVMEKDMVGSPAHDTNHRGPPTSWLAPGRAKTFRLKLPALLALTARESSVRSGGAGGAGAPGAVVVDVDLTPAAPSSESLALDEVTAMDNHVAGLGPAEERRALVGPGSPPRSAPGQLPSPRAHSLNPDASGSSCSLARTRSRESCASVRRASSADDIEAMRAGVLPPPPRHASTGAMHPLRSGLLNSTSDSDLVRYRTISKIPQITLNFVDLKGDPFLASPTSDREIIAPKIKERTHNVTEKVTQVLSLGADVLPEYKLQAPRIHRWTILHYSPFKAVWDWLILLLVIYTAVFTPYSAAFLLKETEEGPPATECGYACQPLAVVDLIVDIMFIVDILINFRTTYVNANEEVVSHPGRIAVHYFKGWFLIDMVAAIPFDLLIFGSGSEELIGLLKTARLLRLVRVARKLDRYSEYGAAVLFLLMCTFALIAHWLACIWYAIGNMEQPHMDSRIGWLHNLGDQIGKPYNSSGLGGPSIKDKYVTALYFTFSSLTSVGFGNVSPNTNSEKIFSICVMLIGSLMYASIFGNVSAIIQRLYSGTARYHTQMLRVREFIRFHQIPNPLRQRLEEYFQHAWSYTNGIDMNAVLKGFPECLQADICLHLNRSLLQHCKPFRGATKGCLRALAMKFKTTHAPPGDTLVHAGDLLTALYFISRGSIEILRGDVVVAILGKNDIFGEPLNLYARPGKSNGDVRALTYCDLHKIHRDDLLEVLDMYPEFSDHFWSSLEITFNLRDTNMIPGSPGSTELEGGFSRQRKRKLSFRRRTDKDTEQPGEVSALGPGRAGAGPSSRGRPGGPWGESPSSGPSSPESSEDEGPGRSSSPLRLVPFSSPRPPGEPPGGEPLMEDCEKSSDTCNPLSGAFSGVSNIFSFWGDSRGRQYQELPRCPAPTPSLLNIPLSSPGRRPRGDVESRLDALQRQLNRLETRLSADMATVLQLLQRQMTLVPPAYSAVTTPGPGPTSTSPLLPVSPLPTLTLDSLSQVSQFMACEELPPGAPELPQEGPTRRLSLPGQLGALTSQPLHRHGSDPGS
Consider `COc1cc(NC(=O)CSC(=S)N2CCCC2)c(OC)cc1Cl`, for which the “hERG current change (%, negative = inhibition) at 1uM” value is recorded as 27.5%.
To `Cc1nc(NCc2ccco2)c2c3c(sc2n1)CCC3` belongs 2.14%; to `CCOC(=O)C1=C(COC(=O)COc2ccccc2C#N)NC(=O)NC1C` (centres unmarked), 7.51%.
As to `O=C(CC(NC(=O)c1ccccc1Cl)c1ccccc1)Nc1ccc2c(c1)OCO2` (centres unmarked), the “hERG current change (%, negative = inhibition) at 1uM” value worked out at 11.4%.
For `O=S(=O)(NC1CCN(S(=O)(=O)c2ccc3c(c2)OCCO3)C1)c1c(F)cccc1F` (centres unmarked), the “hERG current change (%, negative = inhibition) at 1uM” value is recorded as 12%.
Regarding `O=C(NCCCn1ccnc1)/C(=C\c1ccco1)NC(=O)c1ccco1`, the “hERG current change (%, negative = inhibition) at 1uM” value is -10.8%.
Consider `COc1ccc2nc(CCN(C)C(=O)C3CCC(=O)N(Cc4cccc(F)c4)C3)[nH]c2c1` (centres unmarked), for which the “hERG current change (%, negative = inhibition) at 1uM” value was determined as 8.35%.
As to `Cc1cc(C)cc(OCC(=O)N2Cc3ccccc3CC2C(=O)O)c1` (centres unmarked), the “hERG current change (%, negative = inhibition) at 1uM” value is on record as 0.521%.
As for `CC1CCc2nn(CC(=O)NCc3ccc4c(c3)OCO4)cc2C1` (centres unmarked), the “hERG current change (%, negative = inhibition) at 1uM” value is recorded as -5.05%.
As for `Cc1ccc(C)c(CN2CCN(c3ncccn3)CC2)c1`, the “hERG current change (%, negative = inhibition) at 1uM” value was determined as 7.94%.
As to `CCOC(=O)c1ccc(NC(=O)CCc2nc(-c3ccc(C)cc3)no2)cc1`, the “hERG current change (%, negative = inhibition) at 1uM” value is 7.27%.
On to `O=C(O)c1cc(N2C(=O)C3C4C=CC(C4)C3C2=O)ccc1N1CCOCC1` (centres unmarked), for which the “hERG current change (%, negative = inhibition) at 1uM” value stood at 3.47%.
Turning to `CN1C2CCC1CC(NC(=O)CSCc1ccc(Cl)cc1Cl)C2` (centres unmarked), the “hERG current change (%, negative = inhibition) at 1uM” value is -8.82%.
For the compound `CCN(CC)C(=O)c1nc[nH]c1C(=O)N1CCN(c2ccccc2)CC1`, the “hERG current change (%, negative = inhibition) at 1uM” value turned out to be 13.5%.
With `COc1ccccc1N1CCN(CC(=O)Nc2ccnn2C2CCCC2)CC1`, the “hERG current change (%, negative = inhibition) at 1uM” value worked out at 5.53%.
`COc1ccc(C(c2c(NC(=O)c3ccco3)sc(C)c2C)N2CCOCC2)cc1OC` (centres unmarked): the “hERG current change (%, negative = inhibition) at 1uM” value was found to be 0.0157%.
On to `O=C(Nc1ccc(Oc2cccnc2)nc1)c1ccc(C(F)(F)F)cc1`, for which the “hERG current change (%, negative = inhibition) at 1uM” value is reported as 4.92%.
To `COC(=O)C1C(=O)c2c([nH]c(C(=O)OC3CCCC3C)c2C)CC1C` (centres unmarked) belongs 8.93%.
To `O=C(CC1CCCCC1)Nc1ccccc1-c1ccccc1` belongs 10.7%; to `COc1cc(C2NC(=O)c3ccccc3O2)cc(OC)c1OC` (centres unmarked), -0.118%; to `COc1ccc(NC(=O)CN2C(=O)CC(C)(C)S(=O)(=O)c3ccccc32)cc1`, 5.01%.
`CNCCCC1Sc2ccccc2Oc2ccccc21.O=C(O)C(=O)O` (centres unmarked): the “hERG current change (%, negative = inhibition) at 1uM” value is listed as 2.83%.
For `CCOc1cc(/C=N/n2cnnc2)ccc1OS(=O)(=O)c1ccccc1`, the “hERG current change (%, negative = inhibition) at 1uM” value is -17.2%.
On to `CC(=O)Nc1ccc(NC(=O)c2ccc(COc3ccccc3Br)o2)cc1`, for which the “hERG current change (%, negative = inhibition) at 1uM” value was 14.2%.
Take `Cc1cccc(C(C(N)=O)c2ncc(C(F)(F)F)cc2Cl)c1` (centres unmarked): the “hERG current change (%, negative = inhibition) at 1uM” value is given as -1.26%.
To `CCOC(=O)C(=CNc1ccc(Oc2cncc(Cl)c2)nc1)C(=O)OCC` belongs 5.13%; to `NC(=O)C1(N2CCCCC2)CCN(C(=O)c2ccc(-n3cnnn3)cc2)CC1`, -19.5%.
Regarding `CCCCOc1ccc(C(C)NC(=O)C2CCCN(S(=O)(=O)CC)C2)cc1` (centres unmarked), the “hERG current change (%, negative = inhibition) at 1uM” value turned out to be 9.99%.
Take `N=C1c2ccccc2CN1NC(=O)CC12CC3CC(CC(C3)C1)C2`: the “hERG current change (%, negative = inhibition) at 1uM” value amounted to 3.97%.
Regarding `CCCc1nnc(SCC(=O)N2CCCCC2)n1CCCOC`, the “hERG current change (%, negative = inhibition) at 1uM” value is recorded as 10.1%.
As to `Cc1ccc(S(=O)(=O)N(Cc2ccccc2)c2ccccc2C(=O)NCc2ccco2)cc1`, the “hERG current change (%, negative = inhibition) at 1uM” value was determined as 14.9%.
To `Cc1ccc(C(=O)N2CCN(c3ccc(NC(=O)COc4ccccc4C)cc3)CC2)cc1` belongs -28.4%; to `COC(=O)c1ccc(Oc2ccc(C(C)(C)C)cc2)c([N+](=O)[O-])c1`, 11.4%; to `CC(Cc1ccccc1)NC(=O)c1ccc(N)cc1` (centres unmarked), 4.15%.
For `CC(=O)Nc1ccc(-c2cn3cccnc3n2)cc1`, the “hERG current change (%, negative = inhibition) at 1uM” value is 6.42%.
In the case of `COc1cccc(-c2sc3ccc(OC)cc3c2-c2ccc(OC)cc2F)c1`, the “hERG current change (%, negative = inhibition) at 1uM” value amounted to 7.79%.
To `CCN(CC)CCN1C(=O)/C(=C\c2ccc(Cl)c([N+](=O)[O-])c2)SC1=Nc1ccc(OC)cc1` belongs 12.2%.
As for `CC1(C(=O)OCC(=O)Nc2ccccc2)CC1(Cl)Cl` (centres unmarked), the “hERG current change (%, negative = inhibition) at 1uM” value is on record as 15.3%.
As to `O=C(c1cc(-c2ccc(Cl)cc2)on1)N1CCc2ccccc2C1`, the “hERG current change (%, negative = inhibition) at 1uM” value is on record as 11.6%.
With `O=C(CCCOc1ccccc1)Nc1ccc(S(=O)(=O)N2CCOCC2)cc1`, the “hERG current change (%, negative = inhibition) at 1uM” value was 10%.
Take `COc1cccc(-c2nnc(SCc3cccnc3)o2)c1`: the “hERG current change (%, negative = inhibition) at 1uM” value amounted to 12.9%.
To `O=S(=O)(N1CCOCC1)N1CCN(c2ccc(F)cc2)CC1` belongs 4.05%.
Regarding `COc1ccc(NS(=O)(=O)c2ccc(C)cc2)c([N+](=O)[O-])c1`, the “hERG current change (%, negative = inhibition) at 1uM” value worked out at 1.31%.
`O=C(N/N=C/c1cccc(Br)c1)c1ccc(N2CCCC2=O)cc1`: the “hERG current change (%, negative = inhibition) at 1uM” value is -12.2%.
As for `COc1ccccc1NC(=O)c1nn(-c2cccc(C(F)(F)F)c2)ccc1=O`, the “hERG current change (%, negative = inhibition) at 1uM” value is 12%.
As for `COc1ccc(CCNC(=O)CN(C)S(=O)(=O)c2ccc(Br)s2)cc1OC`, the “hERG current change (%, negative = inhibition) at 1uM” value is -11.6%.
In the case of `CC(C)(C)C(=O)Nc1ccc2oc(-c3cc(F)c(F)cc3Cl)nc2c1`, the “hERG current change (%, negative = inhibition) at 1uM” value amounted to 15.8%.
As to `COc1ccc(CNC(=O)C(C)NC(=O)c2cc3ccccc3o2)cc1` (centres unmarked), the “hERG current change (%, negative = inhibition) at 1uM” value is -0.419%.
For `CN(C)c1cccc(C(=O)OCC(=O)N(Cc2ccccc2)C2CCS(=O)(=O)C2)c1` (centres unmarked), the “hERG current change (%, negative = inhibition) at 1uM” value was 8.25%.
Take `CC(C)c1ccc(CNC(=O)C(=O)NCCCn2ccnc2)cc1`: the “hERG current change (%, negative = inhibition) at 1uM” value is 9.36%.
To `C/C(=N\NC(=O)c1cccc(C)c1)c1cccc(NC(=O)c2ccco2)c1` belongs 4.73%; to `O=C(Oc1ccc(Cl)c2cccnc12)N1CCCCCC1`, 8.56%; to `CCOC(=O)c1c(C)[nH]c(C(=O)N/N=C/c2cccc(OC)c2)c1C`, 4.57%.
As for `CCS(=O)(=O)Nc1cccc(C2=NN(S(=O)(=O)c3ccc(F)cc3)C(c3cccs3)C2)c1` (centres unmarked), the “hERG current change (%, negative = inhibition) at 1uM” value is 6.75%.
In the case of `Cc1cc(Br)cn2cc(C(=O)O)nc12`, the “hERG current change (%, negative = inhibition) at 1uM” value is on record as 14.4%.
Consider `COc1cccc(-c2nnc(N(C)C(=O)C3CCOC3)s2)c1` (centres unmarked), for which the “hERG current change (%, negative = inhibition) at 1uM” value is 4.52%.

The record behind these values is PMC4336329 (PLoS ONE, 2015).
